The other results are listed elsewhere or left out.
Experiments:
Experiment in all cases: glycan array binding signal (z-score within array); higher = stronger binding
Settings in all cases: glycan notation: IUPAC condensed, linker removed
[1] = biological target: GlcNAc(b1-3)Gal(b1-4)GlcNAc(b1-3)Gal(b1-4)GlcNAc(b1-3)Gal(b1-4)GlcNAc(b1-3)Gal(b1-4)GlcNAc(b1-2)[GlcNAc(b1-3)Gal(b1-4)GlcNAc(b1-3)Gal(b1-4)GlcNAc(b1-3)Gal(b1-4)GlcNAc(b1-3)Gal(b1-4)GlcNAc(b1-6)]Man(a1-6)[GlcNAc(b1-3)Gal(b1-4)GlcNAc(b1-3)Gal(b1-4)GlcNAc(b1-3)Gal(b1-4)GlcNAc(b1-3)Gal(b1-4)GlcNAc(b1-2)Man(a1-3)]Man(b1-4)GlcNAc(b1-4)[Fuc(a1-6)]GlcNAc
How it was run: (§1)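 Columns mapping to the same glycan were averaged after glycan names were converted to IUPAC-condensed notation. The data come from 3228 arrays in the Consortium for Functional Glycomics database, limited to those with an available protein sequence. Binding is reported as a within-array Z-score averaged across arrays of one protein sequence and across linkers.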

[2] = biological target: GlcNAc(b1-3)Gal(b1-4)GlcNAc(b1-3)Gal(b1-4)GlcNAc(b1-3)GalNAc
How it was run: as §1

[3] = biological target: GlcNAc(b1-3)Gal(b1-4)GlcNAc(b1-3)GalNAc
How it was run: as §1

[4] = biological target: GlcNAc(b1-3)Gal(b1-4)GlcNAc(b1-3)[GlcNAc(b1-3)Gal(b1-4)GlcNAc(b1-3)]GalNAc
How it was run: as §1

[5] = biological target: GlcNAc(b1-3)Gal(b1-4)GlcNAc(b1-6)[Gal(b1-3)]GalNAc
How it was run: as §1

[6] = biological target: GlcNAc(b1-3)Gal(b1-4)GlcNAc(b1-6)[GlcNAc(b1-3)Gal(b1-3)]GalNAc
How it was run: as §1

[7] = biological target: GlcNAc(b1-3)Gal(b1-4)GlcNAc(b1-6)[GlcNAc(b1-3)]Gal(b1-4)GlcNAc
How it was run: as §1

GlcNAc(b1-3)GalNAc = biological target: GlcNAc(b1-3)GalNAc
How it was run: as §1

GlcNAc(b1-3)Man = biological target: GlcNAc(b1-3)Man
How it was run: as §1

[8] = biological target: GlcNAc(b1-3)[GlcNAc(b1-4)][GlcNAc(b1-6)]GlcNAc
How it was run: as §1

[9] = biological target: GlcNAc(b1-3)[GlcNAc(b1-6)]Gal(b1-4)GlcNAc
How it was run: as §1

[10] = biological target: GlcNAc(b1-3)[GlcNAc(b1-6)]GalNAc
How it was run: as §1

[11] = biological target: GlcNAc(b1-4)Gal(b1-4)GlcNAc
How it was run: as §1

GlcNAc(b1-4)GlcNAc = biological target: GlcNAc(b1-4)GlcNAc
How it was run: as §1

[12] = biological target: GlcNAc(b1-4)GlcNAc(b1-4)GlcNAc
How it was run: as §1

[13] = biological target: GlcNAc(b1-4)GlcNAc(b1-4)GlcNAc(b1-4)GlcNAc(b1-4)GlcNAc
How it was run: as §1

[14] = biological target: GlcNAc(b1-4)GlcNAc(b1-4)GlcNAc(b1-4)GlcNAc(b1-4)GlcNAc(b1-4)GlcNAc
How it was run: as §1

[15] = biological target: GlcNAc(b1-4)[GlcNAc(b1-6)]GalNAc
How it was run: as §1

[16] = biological target: GlcNAc(b1-6)Gal(b1-4)GlcNAc
How it was run: as §1

GlcNAc(b1-6)GalNAc = biological target: GlcNAc(b1-6)GalNAc
How it was run: as §1

[17] = biological target: GlcNAc6S(b1-3)Gal(b1-4)GlcNAc
How it was run: as §1

Kdn(a2-3)Gal(b1-3)GalNAc = biological target: Kdn(a2-3)Gal(b1-3)GalNAc
How it was run: as §1

Kdn(a2-3)Gal(b1-3)GlcNAc = biological target: Kdn(a2-3)Gal(b1-3)GlcNAc
How it was run: as §1

Kdn(a2-3)Gal(b1-4)Glc = biological target: Kdn(a2-3)Gal(b1-4)Glc
How it was run: as §1

Kdn(a2-3)Gal(b1-4)GlcNAc = biological target: Kdn(a2-3)Gal(b1-4)GlcNAc
How it was run: as §1

[18] = biological target: Kdn(a2-3)Gal(b1-4)[Fuc(a1-3)]GlcNAc
How it was run: as §1

Kdn(a2-6)Gal(b1-4)GlcNAc = biological target: Kdn(a2-6)Gal(b1-4)GlcNAc
How it was run: as §1

[19] = biological target: Man(a1-2)Man(a1-2)Man(a1-3)Man
How it was run: as §1

[20] = biological target: Man(a1-2)Man(a1-2)Man(a1-6)[Man(a1-3)]Man
How it was run: as §1

Man(a1-2)Man(a1-3)Man = biological target: Man(a1-2)Man(a1-3)Man
How it was run: as §1

[21] = biological target: Man(a1-2)Man(a1-3)[Man(a1-2)Man(a1-6)]Man
How it was run: as §1

[22] = biological target: Man(a1-2)Man(a1-3)[Man(a1-2)Man(a1-6)]Man(a1-6)[Man(a1-2)Man(a1-2)Man(a1-3)]Man
How it was run: as §1

[23] = biological target: Man(a1-2)Man(a1-3)[Man(a1-2)Man(a1-6)]Man(a1-6)[Man(a1-2)Man(a1-2)Man(a1-3)]Man(b1-4)GlcNAc(b1-4)GlcNAc
How it was run: as §1

[24] = biological target: Man(a1-2)Man(a1-3)[Man(a1-6)]Man(a1-6)[Man(a1-2)Man(a1-3)]Man(b1-4)GlcNAc(b1-4)GlcNAc
How it was run: as §1

[25] = biological target: Man(a1-2)Man(a1-6)[Man(a1-3)]Man(a1-6)[Man(a1-2)Man(a1-2)Man(a1-3)]Man
How it was run: as §1

[26] = biological target: Man(a1-2)Man(a1-6)[Man(a1-3)]Man(a1-6)[Man(a1-2)Man(a1-2)Man(a1-3)]Man(b1-4)GlcNAc(b1-4)GlcNAc
How it was run: as §1

Man(a1-3)[Man(a1-6)]Man = biological target: Man(a1-3)[Man(a1-6)]Man
How it was run: as §1

[27] = biological target: Man(a1-3)[Man(a1-6)]Man(a1-6)[Man(a1-2)Man(a1-3)]Man(b1-4)GlcNAc(b1-4)GlcNAc
How it was run: as §1

[28] = biological target: Man(a1-3)[Man(a1-6)]Man(a1-6)[Man(a1-3)]Man
How it was run: as §1

[29] = biological target: Man(a1-3)[Man(a1-6)]Man(a1-6)[Man(a1-3)]Man(b1-4)GlcNAc(b1-4)GlcNAc
How it was run: as §1

[30] = biological target: Man(a1-3)[Man(a1-6)]Man(b1-4)GlcNAc(b1-4)GlcNAc
How it was run: as §1

[31] = biological target: Man(a1-3)[Man(a1-6)]Man(b1-4)GlcNAc(b1-4)[Fuc(a1-6)]GlcNAc
How it was run: as §1

Man(a1-6)Man = biological target: Man(a1-6)Man
How it was run: as §1

Man(b1-4)GlcNAc = biological target: Man(b1-4)GlcNAc
How it was run: as §1

MurNAc(b1-4)GlcNAc = biological target: MurNAc(b1-4)GlcNAc
How it was run: as §1

B1: CFEM-PPl (Pichia pastoris), F2QPV1 (protein)
chain: AVATPPACLLACAAEVVKESSDCDALNNIQCICENEGSAIHACLESTCPDGLSSTALQSFEDVCESVGTEANLDE
- glycan array binding signal (z-score) [1]: -0.132
- glycan array binding signal (z-score) [2]: -0.203
- glycan array binding signal (z-score) [3]: -0.329
- glycan array binding signal (z-score) [4]: -0.22
- glycan array binding signal (z-score) [5]: 0.274
- glycan array binding signal (z-score) [6]: -0.265
- glycan array binding signal (z-score) [7]: -0.335
- glycan array binding signal (z-score) (GlcNAc(b1-3)GalNAc): -0.314
- glycan array binding signal (z-score) (GlcNAc(b1-3)Man): -0.242
- glycan array binding signal (z-score) [8]: -0.262
- glycan array binding signal (z-score) [9]: -0.018
- glycan array binding signal (z-score) [10]: -0.359
- glycan array binding signal (z-score) [11]: -0.288
- glycan array binding signal (z-score) (GlcNAc(b1-4)GlcNAc): -0.153
- glycan array binding signal (z-score) [12]: -0.291
- glycan array binding signal (z-score) [13]: -0.172
- glycan array binding signal (z-score) [14]: -0.086
- glycan array binding signal (z-score) [15]: -0.176
- glycan array binding signal (z-score) [16]: -0.019
- glycan array binding signal (z-score) (GlcNAc(b1-6)GalNAc): -0.364
- glycan array binding signal (z-score) [17]: 0.299
- glycan array binding signal (z-score) (Kdn(a2-3)Gal(b1-3)GalNAc): -0.307
- glycan array binding signal (z-score) (Kdn(a2-3)Gal(b1-3)GlcNAc): -0.02
- glycan array binding signal (z-score) (Kdn(a2-3)Gal(b1-4)Glc): -0.334
- glycan array binding signal (z-score) (Kdn(a2-3)Gal(b1-4)GlcNAc): -0.087
- glycan array binding signal (z-score) [18]: -0.19
- glycan array binding signal (z-score) (Kdn(a2-6)Gal(b1-4)GlcNAc): -0.231
- glycan array binding signal (z-score) [19]: 0.013
- glycan array binding signal (z-score) [20]: -0.294
- glycan array binding signal (z-score) (Man(a1-2)Man(a1-3)Man): -0.171
- glycan array binding signal (z-score) [21]: -0.263
- glycan array binding signal (z-score) [22]: -0.144
- glycan array binding signal (z-score) [23]: -0.249
- glycan array binding signal (z-score) [24]: -0.138
- glycan array binding signal (z-score) [25]: -0.274
- glycan array binding signal (z-score) [26]: -0.357
- glycan array binding signal (z-score) (Man(a1-3)[Man(a1-6)]Man): -0.244
- glycan array binding signal (z-score) [27]: -0.336
- glycan array binding signal (z-score) [28]: -0.201
- glycan array binding signal (z-score) [29]: -0.316
- glycan array binding signal (z-score) [30]: -0.296
- glycan array binding signal (z-score) [31]: -0.164
- glycan array binding signal (z-score) (Man(a1-6)Man): -0.322
- glycan array binding signal (z-score) (Man(b1-4)GlcNAc): -0.273
- glycan array binding signal (z-score) (MurNAc(b1-4)GlcNAc): -0.357
